This passage reports isolate count results from the supplement of paper PMC10886265.

Structures are written as SMILES. Each value is the number of isolates with that result; steps that no isolate showed are left empty. MIC by broth microdilution (CLSI, 0.25-128 µg/mL, 18 h, 37 °C) of Gram-negative wastewater isolates picked on carbapenem-selective plates; higher = less susceptible. No active / inactive call. Isolates were selected for resistance.

Holding throughout (experiment): Isolates counted by MIC; Broth microdilution (CLSI), cation-adjusted Mueller-Hinton broth, two-fold steps from 0.25 to 128 µg/mL, 18 h at 37 °C.
For orientation: Broth dilution looks for growth in wells or tubes with falling amounts of substance.

The test system of assay [1] is Klebsiella pneumoniae with no carbapenemase gene listed (17 isolates).
The test system of assay [2] is Enterobacter bugandensis with no carbapenemase gene listed (40 isolates).
In assay [3] the test system is Enterobacter asburiae with no carbapenemase gene listed (16 isolates).
For assay [4], the system named is Klebsiella oxytoca with no carbapenemase gene listed (21 isolates).
For assay [5], the system named is Enterobacter cloacae with no carbapenemase gene listed (25 isolates).

In the case of `C[C@@H](O)[C@H]1C(=O)N2C(C(=O)O)=C(S[C@@H]3CN[C@H](C(=O)N(C)C)C3)[C@H](C)[C@H]12` [Meropenem], the isolate count in assay [1] (MIC: 8 µg/mL) came to 4; in assay [1] (MIC: 16 µg/mL) it was 6; in assay [1] (MIC: 32 µg/mL), 5; in assay [1] (MIC: 64 µg/mL), 2; in assay [2] (MIC: 8 µg/mL), 1; in assay [2] (MIC: 16 µg/mL) it was 23. For the same compound, the isolate count was 7 in assay [2] (MIC: 32 µg/mL); 9 in assay [2] (MIC: 64 µg/mL); 4 in assay [3] (MIC: 8 µg/mL); 5 in assay [3] (MIC: 16 µg/mL); 6 in assay [3] (MIC: 32 µg/mL); 1 in assay [3] (MIC: 64 µg/mL). Besides, the isolate count came out at 9 in assay [4] (MIC: 16 µg/mL); 11 in assay [4] (MIC: 32 µg/mL); 1 in assay [4] (MIC: 64 µg/mL); 4 in assay [5] (MIC: 8 µg/mL); 13 in assay [5] (MIC: 16 µg/mL); 6 in assay [5] (MIC: 32 µg/mL). The compound also came in with an isolate count in assay [5] (MIC: 64 µg/mL) of 2.
As for `C[C@@H](O)[C@H]1C(=O)N2C(C(=O)O)=C(S[C@@H]3CN[C@H](C(=O)Nc4cccc(C(=O)O)c4)C3)[C@H](C)[C@H]12` [Ertapenem], the isolate count in assay [1] (MIC: 4 µg/mL) stood at 7; in assay [1] (MIC: 8 µg/mL) it was 3; in assay [1] (MIC: 16 µg/mL), 5; in assay [1] (MIC: 32 µg/mL), 2; in assay [2] (MIC: 4 µg/mL) it was 1; in assay [2] (MIC: 8 µg/mL) it was 7. Moreover, the isolate count in assay [2] (MIC: 16 µg/mL) worked out at 20; in assay [2] (MIC: 32 µg/mL), 12; in assay [3] (MIC: 4 µg/mL), 1; in assay [3] (MIC: 8 µg/mL), 5; in assay [3] (MIC: 16 µg/mL), 7; in assay [3] (MIC: 32 µg/mL) it was 3. For the same compound, the isolate count in assay [4] (MIC: 4 µg/mL) turned out to be 4; in assay [4] (MIC: 8 µg/mL), 4; in assay [4] (MIC: 16 µg/mL), 12; in assay [4] (MIC: 32 µg/mL) it was 1; in assay [5] (MIC: 4 µg/mL), 9; in assay [5] (MIC: 8 µg/mL) it was 4. Further, the isolate count in assay [5] (MIC: 16 µg/mL) stood at 8; in assay [5] (MIC: 32 µg/mL), 3; in assay [5] (MIC: 64 µg/mL), 1.
Take `C[C@@H](O)[C@H]1C(=O)N2C(C(=O)O)=C(SCCNC=N)C[C@H]12` [Imipenem]: the isolate count in assay [1] (MIC: 4 µg/mL) was 3; in assay [1] (MIC: 8 µg/mL), 7; in assay [1] (MIC: 16 µg/mL), 5; in assay [1] (MIC: 32 µg/mL) it was 1; in assay [1] (MIC: 64 µg/mL), 1; in assay [2] (MIC: 4 µg/mL) it was 8. The isolate count in assay [2] (MIC: 8 µg/mL) came out at 20; in assay [2] (MIC: 16 µg/mL), 4; in assay [2] (MIC: 32 µg/mL), 3; in assay [2] (MIC: 64 µg/mL), 5; in assay [3] (MIC: 4 µg/mL), 6; in assay [3] (MIC: 8 µg/mL) it was 7. In addition, the isolate count in assay [3] (MIC: 16 µg/mL) was 2; in assay [3] (MIC: 64 µg/mL), 1; in assay [4] (MIC: 8 µg/mL), 12; in assay [4] (MIC: 16 µg/mL), 8; in assay [4] (MIC: 64 µg/mL), 1; in assay [5] (MIC: 4 µg/mL), 5. The isolate count in assay [5] (MIC: 8 µg/mL) came out at 14; in assay [5] (MIC: 16 µg/mL), 3; in assay [5] (MIC: 32 µg/mL) it was 1; in assay [5] (MIC: 64 µg/mL), 2.
